Measured values published in PubChem BioAssay AID488969 (Vanderbilt High Throughput Screening Facility, 2010).
Where “and” joins values, the source holds several entries; their conditions need not be identical. Identical values can stand only once. In all, about 110,000 compounds were measured (“z-score”: median about -0.1, highest 2% from about 2 on). This is one part of the list. Calls of active or inactive are those of the source.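 Rule for the calls: active = z-score in the third read window above 3 or below -3; inactive = the rest.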

target: Metabotropic glutamate receptor 8 (Rattus norvegicus) (UniProt P70579); test: rat mGluR8 modulators via GIRK flux, primary screen, cell-based, thallium flux, HTS (AID 488969); conditions: HEK293 rat mGluR8, GIRK (G protein-gated inwardly rectifying potassium channel) thallium flux, FluoZin2; at 10 µM; stronger effect = higher value; submaximal glutamate (EC20) added with thallium
Sequence of UniProt P70579 (P70579 whole entry, looked up): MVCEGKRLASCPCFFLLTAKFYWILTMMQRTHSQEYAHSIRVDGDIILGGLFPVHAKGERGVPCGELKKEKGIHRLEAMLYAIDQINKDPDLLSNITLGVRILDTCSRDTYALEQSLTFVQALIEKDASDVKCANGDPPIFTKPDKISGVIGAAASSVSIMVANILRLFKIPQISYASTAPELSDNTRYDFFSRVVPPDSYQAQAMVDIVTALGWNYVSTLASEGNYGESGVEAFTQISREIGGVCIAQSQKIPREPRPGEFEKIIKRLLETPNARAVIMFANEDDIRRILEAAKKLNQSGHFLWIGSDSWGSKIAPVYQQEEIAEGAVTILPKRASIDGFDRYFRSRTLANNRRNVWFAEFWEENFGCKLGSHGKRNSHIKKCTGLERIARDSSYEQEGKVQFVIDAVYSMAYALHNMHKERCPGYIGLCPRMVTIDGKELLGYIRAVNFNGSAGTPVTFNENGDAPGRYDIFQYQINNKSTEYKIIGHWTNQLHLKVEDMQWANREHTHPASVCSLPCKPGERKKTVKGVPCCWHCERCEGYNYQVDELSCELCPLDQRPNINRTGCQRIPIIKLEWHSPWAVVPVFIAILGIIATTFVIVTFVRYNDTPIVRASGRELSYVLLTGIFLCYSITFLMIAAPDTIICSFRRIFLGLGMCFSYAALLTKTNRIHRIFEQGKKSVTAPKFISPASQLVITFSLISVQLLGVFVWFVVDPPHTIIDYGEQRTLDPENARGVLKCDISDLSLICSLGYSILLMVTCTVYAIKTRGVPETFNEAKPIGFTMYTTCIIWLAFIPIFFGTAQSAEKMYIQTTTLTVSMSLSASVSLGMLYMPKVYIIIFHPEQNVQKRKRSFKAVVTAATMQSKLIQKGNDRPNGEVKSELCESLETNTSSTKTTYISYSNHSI

Compound | z-score
O=C1CC(Nc2ccc(N3CCOCC3)cc2)C(=O)N1C1CCCCC1 (stereo unspecified) | -0.286
CCn1c(SCC(=O)Nc2nc3c(s2)CCCC3)nnc1-c1ccccc1 | -0.982
O=C(O)CSc1nnc(SCc2cccc3ccccc23)s1 | -0.421
CC1CCN(C(=O)CN(c2ccc3c(c2)OCO3)S(C)(=O)=O)CC1 | 0.138
CCC(=O)Nc1ccccc1C(=O)NC1CCCCC1 | 0.175
Cc1ccc(F)cc1NC(=O)c1ccc(NS(=O)(=O)c2ccc(Br)s2)cc1 | -0.286
CN(C)c1nc(Oc2ccc(N)cc2)nc(N(C)C)n1 | 0.322
CCn1c(SCc2nc(-c3ccccc3)no2)nc2ccccc21 | active: 3.16
O=C(CN1C(=O)S/C(=C\C=C\c2ccccc2)C1=O)Nc1ccc(O)cc1 | -0.208
O=C(O/N=C1/CCSc2ccccc21)c1ccc(F)cc1 | -0.292
CCCCSc1nnc2c(n1)OC(C(=O)c1ccccc1)Nc1ccccc1-2 (stereo unspecified) | -1.48
CC(C#N)(Nc1ccc(Cl)cc1)c1cccnc1 (stereo unspecified) | -0.497
Cc1nc2ccccc2cc1C(=O)O | 0.0939
CCOc1ccc(N2C(=O)C(c3ccccc3)=C(c3nc4ccccc4s3)C2NC(C)=O)cc1 (stereo unspecified) | -0.263
Cc1nc(SCC(=O)Nc2c(C)n(C)n(-c3ccccc3)c2=O)[nH]c(=O)c1C | -0.363
COCCNC(=O)Cn1cnc2ccc(S(=O)(=O)N3CCC(C)CC3)cc2c1=O | 0.101
Cc1cc(NC(=O)C2CC=CCC2C(=O)O)no1 (stereo unspecified) | 0.0781
O=C(N/N=C/c1ccncc1)c1cccc(NC(=O)c2ccccc2Cl)c1 | 0.369
COc1cccc(-n2nc(C(=O)Nc3ccc4c(c3)OCO4)c3ccccc3c2=O)c1 | -0.0495
COCCn1c(-c2ccc(OC)cc2)cnc1SCC(=O)Nc1cccc2ccccc12 | -0.0496
COc1cc(C(=O)N2CCN(Cc3ccccc3C(F)(F)F)CC2)cc(OC)c1OC | 1.31
O=C1CC(SC(=NCc2ccc3c(c2)OCO3)Nc2ccccc2)C(=O)N1 (stereo unspecified) | -0.215
CCOC(=O)c1c(CN2CCCCC2)oc2ccc(OC)cc12 | -0.338 and -0.0699
COc1ccc(CNC(=O)Nc2ccc(OC)cc2)cc1 | -0.548

Compound | z-score
O=C(COc1ccccc1F)N1CCN(S(=O)(=O)/C=C/c2ccccc2)CC1 | -0.229
CCN1C(=O)CC(Sc2ccccc2N)C1=O (stereo unspecified) | 0.447
O=C(CSCc1ccc([N+](=O)[O-])cc1)NC1CC2CCC1C2 (stereo unspecified) | -0.334
COCCOC(=O)c1c(C)oc2cc(Br)c(OCC(N)=O)cc12 | -0.287
Cc1cc(C(=O)CN2C(=O)c3ccccc3C2=O)c(C)n1C1CC1 | -0.375
CC(C)c1ccc(/C=N/NC(=O)CN(c2cccc(Cl)c2Cl)S(C)(=O)=O)cc1 | -0.0666
Cc1nc(CN2CCN(C(=O)c3ccc(Br)cc3)CC2)cs1 | 0.293
CSc1nc(O)c(C2OC(=O)c3ccccc32)c(=O)[nH]1 (stereo unspecified) | -0.0305
O=C(OCC#CCSc1nnc(-c2ccccc2)o1)c1cc2ccccc2o1 | 0.217
Cc1ccc(C2N(C)c3ccccc3-c3nc4ccccc4n32)o1 (stereo unspecified) | -2.28
CC(=O)c1cc2c(cc1N/C(=N/S(=O)(=O)c1ccccc1)c1ccc(Cl)cc1)OCO2 | -0.262
COc1ccc(NC(=O)c2cccc(S(=O)(=O)Nc3ccc(Br)cc3)c2)cn1 | -0.375
Cc1oc(C(=O)O)cc1COc1ccc2c3c(c(=O)oc2c1)CCC3 | -0.0436
O=c1cc(-c2ccccc2)nc2nc(-c3ccco3)[nH]n12 | -1.85
Cc1nc(N)c(C#N)c(-c2cccnc2)c1C | 0.356
CN1/C(=C/C2CC(=O)N(c3ccc([N+](=O)[O-])cc3)C2=O)C(C)(C)c2ccccc21 (stereo unspecified) | -0.329
N#C/C(=C\c1ccc(N2CCCCC2)c([N+](=O)[O-])c1)c1nn(-c2ccccc2)c(N)c1C#N | -0.188
COc1ccccc1Nc1nc(N)nc(CSc2nnc(C)s2)n1 | 0.149
C=CCn1c(COc2ccc(CC)cc2)nnc1SC/C(O)=C(\C#N)c1nc2ccccc2[nH]1 | -0.182
Cc1cc(C(=O)OCC(=O)c2cccc([N+](=O)[O-])c2)c2ccccc2n1 | -0.157
CCOC(=O)c1ccc(S(=O)(=O)N2CCN(CC(=O)NC(=O)NC3CCCCC3)CC2)cc1 | 0.0417
Cc1cc(C)nc(N(C#N)C(C)C(=O)N(C)C)n1 (stereo unspecified) | -0.172
COc1ccc(NC(=O)CSc2nnc(Cc3cccn3C)n2CCc2ccccc2)cc1OC | -0.239
C=CCN1C(=O)S/C(=C\c2ccc(N3CCOCC3)cc2C)C1=O | -0.286

Compound | z-score
CC1=N/C(=C\c2ccc([N+](=O)[O-])cc2)C(=O)N1c1ccc(Br)c(C)c1 | -0.365
COc1ccccc1Oc1ccc(S(=O)(=O)N2CCCC2)cc1 | -0.351
CCCCCCCC(=O)N/N=C/c1cccnc1 | -0.364
CCCCC(=O)NC(c1ccco1)c1c(O)ccc2ccccc12 (stereo unspecified) | -0.666
CS(=O)(=O)N(CC(=O)NC1CCCC1)Cc1ccc(Cl)cc1 | -0.11
CCn1c(CSc2nnc3ccccn23)nc2cc(C(=O)O)ccc21 | 1.35
CC(C)=CCSc1nnc(CCNC(=O)OC(C)(C)C)o1 | -0.41
O=C(O)Cn1nnnc1SCC(=O)Nc1ccc(OC(F)(F)F)cc1 | -0.558
O=C(C1CCCO1)N1CCN(C(=S)Nc2ccc(Cl)c(Cl)c2)CC1 (stereo unspecified) | -0.107
O=C(CN1CCSCC1)c1c[nH]c2ccccc12 | 0.0543
Cc1ccccc1Nc1nc(N)nc(CSc2nnc3sc4ccccc4n23)n1 | 0.0724
CC(C)C(c1nnnn1CCc1ccccc1)N1CCN(C(=O)c2ccco2)CC1 (stereo unspecified) | 0.0864
CCOC(=O)c1ccc(N/C(=N\S(=O)(=O)c2ccccc2C)c2ccccc2)cc1 | -0.519
CCOC(=O)N1CCN(c2c(NCc3ccccn3)c(=O)c2=O)CC1 | -0.858
Cc1ccc(/C=N/n2nnnc2N)o1 | -0.618
O=C(NCc1cccnc1)Nc1ccc(F)cc1F | 0.0768
CCOc1ccc(CC(=N)C2=C(O)CC(C)(C)CC2=O)cc1OCC | 0.345
CCCCc1ccc(NC(=O)COCC)cc1 | -0.102
COc1cc(/C=C2/C(=O)N=C(N)N2C)cc(OC)c1OC | active: -4.47
COc1ccccc1OCCNc1cc(N2CCCCC2)ccc1[N+](=O)[O-] | -0.113
Cc1cc(C(=O)CN2CCCCC2)c(C)n1-c1ccc(F)cc1 | 0.569
COc1ccc(/C=C/C(=O)NCc2cccnc2)cc1 | -0.233
COc1cc(S(=O)(=O)Nc2cccc(C(=O)O)c2)c(OC)cc1Cl | -0.00865
